About 2,200 (0.71%) of roughly 310,000 compounds showed an effect of 50% or more. Effects have a minus sign here. The list shows a part of the results.
These molecules were tested against human ether-à-go-go-related gene (hERG) potassium channel (human, UniProt Q12809) (assay: primary screen, population patch clamp on CHO cells stably expressing hERG).
human ether-à-go-go-related gene (hERG) potassium channel, sequence (Q12809 whole entry, looked up): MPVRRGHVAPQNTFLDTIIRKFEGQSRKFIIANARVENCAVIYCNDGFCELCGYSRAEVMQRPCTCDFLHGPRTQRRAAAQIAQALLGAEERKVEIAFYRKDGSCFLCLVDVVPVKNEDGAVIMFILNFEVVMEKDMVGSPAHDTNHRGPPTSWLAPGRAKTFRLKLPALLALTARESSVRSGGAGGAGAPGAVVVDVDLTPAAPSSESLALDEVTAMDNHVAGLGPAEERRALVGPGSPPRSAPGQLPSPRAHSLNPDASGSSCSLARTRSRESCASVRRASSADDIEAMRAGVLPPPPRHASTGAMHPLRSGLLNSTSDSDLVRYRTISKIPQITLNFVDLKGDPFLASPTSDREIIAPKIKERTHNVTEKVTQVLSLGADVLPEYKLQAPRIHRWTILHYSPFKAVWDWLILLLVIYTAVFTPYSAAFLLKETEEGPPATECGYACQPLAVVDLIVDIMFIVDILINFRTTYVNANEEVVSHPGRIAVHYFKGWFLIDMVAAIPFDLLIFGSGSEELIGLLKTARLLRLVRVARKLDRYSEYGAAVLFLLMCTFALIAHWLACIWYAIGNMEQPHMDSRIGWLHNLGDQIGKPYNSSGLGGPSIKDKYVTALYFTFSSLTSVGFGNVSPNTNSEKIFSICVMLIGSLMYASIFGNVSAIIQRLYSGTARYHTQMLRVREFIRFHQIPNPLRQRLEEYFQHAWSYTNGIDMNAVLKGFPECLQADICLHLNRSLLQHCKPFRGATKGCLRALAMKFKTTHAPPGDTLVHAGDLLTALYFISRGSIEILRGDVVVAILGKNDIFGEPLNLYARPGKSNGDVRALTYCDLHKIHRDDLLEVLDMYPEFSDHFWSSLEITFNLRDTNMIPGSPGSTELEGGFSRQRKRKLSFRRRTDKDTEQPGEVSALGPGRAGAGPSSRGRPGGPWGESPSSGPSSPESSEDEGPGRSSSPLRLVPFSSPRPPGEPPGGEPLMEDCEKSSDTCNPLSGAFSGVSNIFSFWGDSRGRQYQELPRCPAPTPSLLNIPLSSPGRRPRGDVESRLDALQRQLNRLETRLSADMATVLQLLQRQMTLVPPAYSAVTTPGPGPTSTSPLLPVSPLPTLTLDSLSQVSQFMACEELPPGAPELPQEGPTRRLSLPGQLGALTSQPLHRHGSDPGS

**Q.** How did the “hERG current change (%, negative = inhibition) at 1uM” value turn out when `Cc1ccc(C(=O)N/C(=C/c2ccco2)C(=O)OCN2C(=O)c3ccccc3C2=O)cc1` was run?
**A.** -12%

**Q.** `CC(=O)N1C=CN(C(C)=O)C(c2cn(C)c3ccccc23)C1c1cn(C)c2ccccc12` (centres unmarked) was tested. Which “hERG current change (%, negative = inhibition) at 1uM” value did it give?
**A.** -3.46%

**Q.** `Cc1ccc(S(=O)(=O)N2CCCC2CNC(=O)c2ccccc2)cc1` (centres unmarked) was tested. Which “hERG current change (%, negative = inhibition) at 1uM” value did it give?
**A.** 8.07%

**Q.** How did the “hERG current change (%, negative = inhibition) at 1uM” value turn out when `C=C(C)C(=O)Oc1ccc(N2C(=O)CCC2=O)cc1` was run?
**A.** 6.83%

**Q.** For `COc1ccc(S(=O)(=O)N/N=c2\oc3c(OC)cccc3cc2S(=O)(=O)c2ccc(C)cc2)cc1OC`, which “hERG current change (%, negative = inhibition) at 1uM” value is on record?
**A.** 12.9%

**Q.** How did the “hERG current change (%, negative = inhibition) at 1uM” value turn out when `CSc1ccccc1-c1nnc(-c2ccc(Cl)cc2)o1` was run?
**A.** 6.44%

**Q.** How did the “hERG current change (%, negative = inhibition) at 1uM” value turn out when `COc1ccc(/C=N/Nc2ncnc3c2[nH]c2ccccc23)c(OC)c1OC` was run?
**A.** 0.362%

**Q.** How did the “hERG current change (%, negative = inhibition) at 1uM” value turn out when `CCOC(=O)c1[nH]c(C)c(/C(O)=C2\C(=O)C(=O)N(CCN(C)C)C2c2cccc(OC)c2OC)c1C` (centres unmarked) was run?
**A.** 9.23%

**Q.** How did the “hERG current change (%, negative = inhibition) at 1uM” value turn out when `O=C(O)c1ccc(Cl)c(S(=O)(=O)NCc2cccnc2)c1` was run?
**A.** 4.34%

**Q.** `CS(=O)(=O)Nc1ccccc1C(=O)OCC(=O)N1CCC(c2ccccc2)=N1` was tested. Which “hERG current change (%, negative = inhibition) at 1uM” value did it give?
**A.** -9.49%

**Q.** How did the “hERG current change (%, negative = inhibition) at 1uM” value turn out when `COCCN(CC(=O)NC1CCCCC1)C(=O)CSc1nc2ccccc2o1` was run?
**A.** 9.08%

**Q.** `COc1cccc(N2CCN(CC(=O)NC(=O)NCc3ccco3)CC2)c1` was tested. Which “hERG current change (%, negative = inhibition) at 1uM” value did it give?
**A.** 15.8%

**Q.** For `CCCc1c(C)nc2ccc(OC)cc2c1SCCC(=O)O`, which “hERG current change (%, negative = inhibition) at 1uM” value is on record?
**A.** 8.26%

**Q.** For `CCn1c(SCC(=O)Nc2cccc(NC(C)=O)c2)nnc1-c1ccco1`, which “hERG current change (%, negative = inhibition) at 1uM” value is on record?
**A.** 15.3%

**Q.** With `Cc1cc(C)n(CCC(=O)N/N=C/c2ccc(O)cc2)n1` as the molecule, how does the “hERG current change (%, negative = inhibition) at 1uM” value read?
**A.** 14.7%

**Q.** Which “hERG current change (%, negative = inhibition) at 1uM” value does the source give for `COc1ccc(NC(=O)NNC(=O)c2ccc(Cl)cc2Cl)cc1OC` here?
**A.** -4.19%

**Q.** With `CCOC(=O)CCNC(=O)CCc1nnc(CCCc2ccccc2)o1` as the molecule, how does the “hERG current change (%, negative = inhibition) at 1uM” value read?
**A.** 10.6%

**Q.** With `Cc1ccc(C2CC(c3cccs3)=NN2C(=O)CSC2=NN3CCCC(=O)N=C3S2)cc1` (centres unmarked) as the molecule, how does the “hERG current change (%, negative = inhibition) at 1uM” value read?
**A.** 5.17%

**Q.** `Cc1cc(C)cc(NC(=O)Nc2ccc3ccccc3n2)c1` was tested. Which “hERG current change (%, negative = inhibition) at 1uM” value did it give?
**A.** 13.5%

**Q.** With `Cc1ccccc1OCC(=O)NNC(=O)Nc1ccc(Cl)cc1` as the molecule, how does the “hERG current change (%, negative = inhibition) at 1uM” value read?
**A.** 8.16%

**Q.** How did the “hERG current change (%, negative = inhibition) at 1uM” value turn out when `CCOc1ccc(CCNC(=O)c2ccc3c(=O)[nH]c4c(C(=O)NC(C)C)sc(=S)n4c3c2)cc1` was run?
**A.** 0.436%

**Q.** How did the “hERG current change (%, negative = inhibition) at 1uM” value turn out when `Cc1nn(CCCC(=O)Nc2cccnc2)c(C)c1[N+](=O)[O-]` was run?
**A.** 13.2%

**Q.** `CCCCCn1c(N2CCCC2)nc2c1c(=O)n(C)c(=O)n2C` was tested. Which “hERG current change (%, negative = inhibition) at 1uM” value did it give?
**A.** 0.57%

**Q.** How did the “hERG current change (%, negative = inhibition) at 1uM” value turn out when `Cc1ccc2c(c1)N(CCCC(=O)NCCCN1CCCCC1)C(=O)CO2` was run?
**A.** 8.19%

**Q.** For `Cc1cc(C)cc(NC(=O)CC2Oc3ccc(C)cc3NC2=O)c1` (centres unmarked), which “hERG current change (%, negative = inhibition) at 1uM” value is on record?
**A.** 12.3%

**Q.** Which “hERG current change (%, negative = inhibition) at 1uM” value does the source give for `CC(=O)c1c(C)n(CC(=O)NCc2ccc3c(c2)OCO3)c2ccccc12` here?
**A.** 5.8%

**Q.** For `CCOC(=O)Cc1nc2ccccc2o1`, which “hERG current change (%, negative = inhibition) at 1uM” value is on record?
**A.** 9.03%

**Q.** With `O=C(O)/C=C/c1cccc(NS(=O)(=O)c2ccccc2)c1` as the molecule, how does the “hERG current change (%, negative = inhibition) at 1uM” value read?
**A.** 2.64%

**Q.** With `C=CCNc1nc(N)c(C(=C(C#N)C#N)c2ccc(Br)cc2)s1` as the molecule, how does the “hERG current change (%, negative = inhibition) at 1uM” value read?
**A.** 8.88%

**Q.** Which “hERG current change (%, negative = inhibition) at 1uM” value does the source give for `CN(C)c1ccc(/C=N/NC(=O)C2CC2c2ccccc2)cc1` (centres unmarked) here?
**A.** 9.78%

**Q.** With `Cn1c(COc2ccccc2)nnc1SCCC(=O)Nc1ccccc1` as the molecule, how does the “hERG current change (%, negative = inhibition) at 1uM” value read?
**A.** -0.018%

**Q.** How did the “hERG current change (%, negative = inhibition) at 1uM” value turn out when `CN1CCN(C(CNC(=O)C(=O)NC2CCCC2)c2ccc(F)cc2)CC1` (centres unmarked) was run?
**A.** 5.31%

**Q.** How did the “hERG current change (%, negative = inhibition) at 1uM” value turn out when `O=C(c1ccco1)N1CCCN(Cc2nc(-c3cccs3)no2)CC1` was run?
**A.** 5.47%

**Q.** `CCS(=O)(=O)N1CCCC(C(=O)NCc2ccc(C)cc2)C1` (centres unmarked) was tested. Which “hERG current change (%, negative = inhibition) at 1uM” value did it give?
**A.** 8.94%

**Q.** How did the “hERG current change (%, negative = inhibition) at 1uM” value turn out when `O=C(CSc1nc(-c2ccc(F)cc2)cc(C(F)(F)F)n1)NCc1ccco1` was run?
**A.** 14.3%

**Q.** Which “hERG current change (%, negative = inhibition) at 1uM” value does the source give for `COc1cc(/C=N/NC(=O)c2cccc3ccccc23)cc(OC)c1OC` here?
**A.** 12.9%

**Q.** `CCC(Oc1ccccc1)C(=O)Nc1ccc(C)c(S(=O)(=O)N2CCOCC2)c1` (centres unmarked) was tested. Which “hERG current change (%, negative = inhibition) at 1uM” value did it give?
**A.** 3.57%

**Q.** How did the “hERG current change (%, negative = inhibition) at 1uM” value turn out when `O=C(CCCC(=O)NCc1ccc(F)cc1)NCc1ccc(F)cc1` was run?
**A.** -19.4%

**Q.** `CC(C)Oc1ccc(-c2cc(C(=O)NCCN3CCOCC3)c3ccccc3n2)cc1` was tested. Which “hERG current change (%, negative = inhibition) at 1uM” value did it give?
**A.** 5.91%

**Q.** With `O=C(CN(Cc1ccccc1)C(=O)CSc1nnc(COc2ccccc2)o1)NC1CCCC1` as the molecule, how does the “hERG current change (%, negative = inhibition) at 1uM” value read?
**A.** -1.24%

**Q.** How did the “hERG current change (%, negative = inhibition) at 1uM” value turn out when `CN(/N=C/c1ccc2c(c1)OCO2)c1nc(N2CCOCC2)nc(N2CCOCC2)n1` was run?
**A.** 12.2%

**Q.** `CCOC(=O)c1cc(C#N)c(SCc2ccc(C#N)cc2)nc1C` was tested. Which “hERG current change (%, negative = inhibition) at 1uM” value did it give?
**A.** 8.27%

**Q.** Which “hERG current change (%, negative = inhibition) at 1uM” value does the source give for `NS(=O)(=O)c1ccc(CCNC(=O)COC(=O)/C=C/c2ccccc2Cl)cc1` here?
**A.** 7.79%

**Q.** For `NC1=NS(=O)(=O)NC1c1cccc(F)c1` (centres unmarked), which “hERG current change (%, negative = inhibition) at 1uM” value is on record?
**A.** 14.4%

**Q.** Which “hERG current change (%, negative = inhibition) at 1uM” value does the source give for `COc1ccc(-c2cc(=O)oc3cc(OCC(=O)N(C)C4CCS(=O)(=O)C4)ccc23)cc1` (centres unmarked) here?
**A.** 18.8%

**Q.** `O=C(NCc1ccccc1)N1CCN(c2ccccc2)CC1` was tested. Which “hERG current change (%, negative = inhibition) at 1uM” value did it give?
**A.** 14.2%

**Q.** How did the “hERG current change (%, negative = inhibition) at 1uM” value turn out when `COc1ccc(C(=O)O)cc1S(=O)(=O)NC(C)C12CC3CC(CC(C3)C1)C2` (centres unmarked) was run?
**A.** 9.53%

**Q.** `COc1ccc(S(=O)(=O)NCCSCc2ccco2)cc1C` was tested. Which “hERG current change (%, negative = inhibition) at 1uM” value did it give?
**A.** 5.09%

**Q.** How did the “hERG current change (%, negative = inhibition) at 1uM” value turn out when `C[N+]1(C)C2CCC1CC(OC(=O)C(CO)c1ccccc1)C2.[I-]` (centres unmarked) was run?
**A.** 18.4%

**Q.** For `Cc1ccccc1Nc1ccc(S(=O)(=O)N2CCOCC2)cc1[N+](=O)[O-]`, which “hERG current change (%, negative = inhibition) at 1uM” value is on record?
**A.** 10.2%

**Q.** With `Cl.O=C(CC1=NC2(CCCC2)Cc2ccccc21)N1CCOCC1` as the molecule, how does the “hERG current change (%, negative = inhibition) at 1uM” value read?
**A.** 4.49%

**Q.** How did the “hERG current change (%, negative = inhibition) at 1uM” value turn out when `O=C(Nn1c(-c2ccccc2)nc2ccccc2c1=O)C1CCC1` was run?
**A.** -0.0108%

**Q.** With `O=C1NC(=O)C2(COC(c3ccncc3)OC2)S1` (centres unmarked) as the molecule, how does the “hERG current change (%, negative = inhibition) at 1uM” value read?
**A.** 17%

**Q.** How did the “hERG current change (%, negative = inhibition) at 1uM” value turn out when `CCOc1ccc(N(CC(=O)Nc2ccc(OC)cc2)S(=O)(=O)c2c(C)noc2C)cc1` was run?
**A.** 14.1%

**Q.** Which “hERG current change (%, negative = inhibition) at 1uM” value does the source give for `Cc1ccc(S(=O)(=O)c2ccc(Oc3ccccc3)cc2)cc1` here?
**A.** 19.4%

**Q.** With `COc1ccc(CN2CCNC(=O)C2CC(=O)NCCCC2CCCC2)c(C)c1C` (centres unmarked) as the molecule, how does the “hERG current change (%, negative = inhibition) at 1uM” value read?
**A.** 0.33%
